The test deals with MCF-7. As to the kind of experiment: cells. As to conditions: Homo sapiens, MCF7, 120 h, read-out: GI50 against MCF-7.

Usually GI50 stands for the concentration giving 50% growth inhibition.

As for `CC(/C=C/[C@H]1OC(C)(C)C[C@@]2(CO2)[C@@H]1O)=C\C[C@@H]1O[C@H](C)[C@H](NC(=O)/C=C\[C@H](C)OC(=O)N2CCOCC2)C[C@@H]1C` [meayamycin B, (2Z,4S)-4-[(morpholinylcarbonyl)oxy]-N-[(2R,3R,5S,6S)-tetrahydro-6-[(2E,4E)-5-[(3R,4R,5R)-4-hydroxy-7,7-dimethyl-1,6-dioxaspiro[2.5]oct-5-yl]-3-methyl-2,4-pentadien-1-yl]-2,5-dimethyl-2H-pyran-3-yl]-2-pentenamide], the GI50 is approximately 0.02 nM.
